Assay results as given in article PMC12547515.
These are yes or no findings as the source states them, for the method shown. In cells and extracts the contact can be indirect. Some results given as binding are weak or reduced against the parent protein; the word gives no strength. For some assays here: Where a sequence is shown, tags or fusion partners need not be part of it.

By UniProt entry, the sequences of proteins in these tests, tags left out.
UniProt P08670: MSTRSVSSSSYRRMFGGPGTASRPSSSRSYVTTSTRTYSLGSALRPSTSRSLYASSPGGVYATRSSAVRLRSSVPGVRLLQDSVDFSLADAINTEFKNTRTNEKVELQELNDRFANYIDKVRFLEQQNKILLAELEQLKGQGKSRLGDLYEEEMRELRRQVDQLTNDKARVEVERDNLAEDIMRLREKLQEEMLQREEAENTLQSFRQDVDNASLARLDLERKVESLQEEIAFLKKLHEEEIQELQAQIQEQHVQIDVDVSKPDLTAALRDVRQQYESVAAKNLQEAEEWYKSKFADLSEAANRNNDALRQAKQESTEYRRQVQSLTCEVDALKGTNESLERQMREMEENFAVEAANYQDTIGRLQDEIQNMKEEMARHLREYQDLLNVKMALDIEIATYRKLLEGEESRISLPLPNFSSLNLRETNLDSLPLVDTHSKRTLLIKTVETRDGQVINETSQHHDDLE

Experiments:
[1] = target: T1, Myc-TRIM44-CC (coiled-coil domain only, amino acids 290-325) (human) (UniProt Q96DX7); assay: co-IP; HEK-293T cells co-transfected with HA-vimentin and MYC-TRIM44 or TRIM44 deletion mutants; lysates immunoprecipitated with MYC-tag antibody, Western blot with HA-tag antibody
T1 sequence: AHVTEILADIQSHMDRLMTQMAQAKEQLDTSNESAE

[2] = target: Myc-TRIM44-ΔB (TRIM44 with a deleted BB domain, del 174-215) (human) (UniProt Q96DX7); assay: as above
[3] = target: Myc-TRIM44-ZF (zinc finger domain only, amino acids 13-48) (human) (UniProt Q96DX7); assay: as above
[4] = target: T2, Myc-TRIM44-BB (B-box domain only, amino acids 174-215) (human) (UniProt Q96DX7); assay: as above
T2 sequence: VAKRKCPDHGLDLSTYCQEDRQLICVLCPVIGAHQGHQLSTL

[5] = target: Tripartite motif-containing 44 (TRIM44), endogenous (human (endogenous in 769-P, Caki-1, OSRC-2, ACHN)) (UniProt Q96DX7); assay: co-IP; whole lysates (RIPA buffer) of 769-P, Caki-1, OSRC-2 and ACHN cells; primary antibody 24 h at 4 °C, protein A/G beads, Western blot
[6] = target: Tripartite motif-containing 44 (TRIM44), endogenous (human (endogenous in 769-P, Caki-1, OSRC-2, ACHN)) (UniProt Q96DX7); assay: proximity ligation; Duolink PLA on fixed, permeabilised ccRCC cells (769-P, Caki-1; further lines in Fig. S5F) with antibodies against TRIM44 (1:100) and vimentin (1:500)
[7] = target: Tripartite motif-containing 44 (TRIM44), endogenous (human (endogenous in 769-P, Caki-1, OSRC-2, ACHN)) (UniProt Q96DX7); assay: co-IP; isolated nuclear proteins of 769-P, OSRC-2, Caki-1 and ACHN cells
[8] = target: Tripartite motif-containing 44 (TRIM44), endogenous (human (endogenous in 769-P, Caki-1, OSRC-2, ACHN)) (UniProt Q96DX7); assay: co-IP; isolated cytoplasmic proteins of 769-P, OSRC-2, Caki-1 and ACHN cells

binding [1]	binding [2]	binding [3]	binding [4]	binding [5]	binding [6]	binding [7]	binding [8]	Substance
no binding	no binding	no binding	binds					HA-vimentin (from UniProt P08670 1-466)
				binds	binds	binds weakly	binds	vimentin, endogenous (from UniProt P08670 1-466)
